Test results from the supplement of paper PMC4967469.
IC50 is the fitted dose that halves viability relative to control wells, and lower means more sensitive; where the fit passes the top or lowest dose, that dose stands as a limit. The AUC spans the tested range (256-fold, ending at the top dose) of the same fit: 1 means no effect, lower means more sensitive. For some of these results: Any top dose called inferred is not printed in the source and was worked back from the curve model. For some of these results: Drugs with an entry number were screened twice under separate entries, and the two screens often disagree.

How the values were obtained:
Test in all cases: Viability of human cancer cell lines after 72 h of drug (GDSC screen)
[1] = compound: NC(=O)c1cccc(-c2cc(Nc3ccc(OC(F)(F)F)cc3)ncn2)c1 [GNF-2]; details: top dose 1.28 µM; top dose inferred
Experimental: (§1)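 Human cancer cell lines in 384-well plates, medium with 10% serum, drug for 72 h over a 256-fold dose range (nine 2-fold or five 4-fold steps up to the top dose). Adherent lines were fixed and stained with the nucleic acid dye Syto60, suspension lines read with resazurin; signal relative to control wells, capped at 0 and 100%. One two-parameter sigmoid per drug and line, fitted in a mixed model over all curves with the slope shared within a line.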

[2] = compound: CCNC(=O)c1noc(-c2cc(C(C)C)c(O)cc2O)c1-c1ccc(CN2CCOCC2)cc1 [AUY922]; details: top dose 0.256 µM; top dose inferred
Experimental: as §1

[3] = compound: O=S(=O)(c1ccccc1)N(CC(F)(F)F)c1ccc(C(O)(C(F)(F)F)C(F)(F)F)cc1 [T0901317]; details: top dose 10.24 µM; top dose inferred
Experimental: as §1

[4] = compound: S=C(NCc1ccc2c(c1)OCO2)N1CCN(c2ncnc3c2oc2ccccc23)CC1 [MP470]; details: top dose 20 µM; top dose inferred
Experimental: as §1

[5] = compound: CC(O)(CS(=O)(=O)c1ccc(F)cc1)C(=O)Nc1ccc(C#N)c(C(F)(F)F)c1 [Bicalutamide]; details: top dose inferred
Experimental: as §1

[6] = compound: CC(C)c1ccccc1Cc1cc(C(=O)Nc2ccc(S(=O)(=O)c3ccccc3C(C)(C)C)cc2)c(O)c(O)c1O [TW-37]; details: top dose 5 µM
Experimental: as §1

[7] = compound: Cc1ccc(Nc2cc(-c3cccc(N4C(=O)c5ccccc5C4=O)c3)ncn2)cc1NS(C)(=O)=O [KIN001-270]; details: top dose 20 µM; top dose inferred
Experimental: as §1

[8] = compound: Nc1ccn([C@@H]2O[C@H](CO)[C@@H](O)C2(F)F)c(=O)n1 [Gemcitabine]; details: top dose 1.024 µM
Experimental: as §1

[9] = compound: C/C(O)=C(\C#N)C(=O)Nc1cc(Br)ccc1Br [LFM-A13]; details: top dose 16 µM; top dose inferred
Experimental: as §1

[10] = top dose 1.024 µM, screen: GDSC drug entry 150
[11] = top dose 10 µM, screen: GDSC drug entry 1502

Cell Line	AUC [1]	IC50 [1] [nM]	AUC [2]	IC50 [2] [nM]	AUC [3]	IC50 [3] [nM]	AUC [4]	IC50 [4] [nM]	AUC [5, 10]	IC50 [5, 10] [nM]	AUC [5, 11]	IC50 [5, 11] [nM]	AUC [6]	IC50 [6] [nM]	AUC [7]	IC50 [7] [nM]	AUC [8]	IC50 [8] [nM]	AUC [9]	IC50 [9] [nM]
SU-DHL-8 (B-cell lymphoma, suspension)	0.974	> 1280	0.564	23.6	0.445	458	0.868	16200	0.977	> 1020	0.979	> 10000	0.658	828	0.91	> 20000	0.17	7	0.912	> 16000
IA-LM (large cell lung carcinoma, adherent)	0.984	> 1280	0.428	9.9	0.963	> 10200	0.942	> 20000	0.977	> 1020	0.96	> 10000	0.713	1360	0.981	> 20000	0.21	7.88	0.977	> 16000
LS-411N (large intestine, adherent)	0.89	> 1280	0.558	23.8	0.975	> 10200	0.965	> 20000	0.979	> 1020	0.979	> 10000	0.726	1600	0.977	> 20000	0.396	31.2	0.957	> 16000
IST-MEL1 (melanoma, adherent)	0.943	> 1280	0.386	7.29	0.975	> 10200	0.97	> 20000	0.979	> 1020	0.969	> 10000	0.502	317	0.943	> 20000	0.079	< 4	0.936	> 16000
NCI-H1666 (lung adenocarcinoma, semi-adherent)	0.987	> 1280	0.977	> 256	0.987	> 10200	0.967	> 20000	0.964	> 1020	0.937	> 10000	0.537	397	0.987	> 20000	0.977	> 1020	0.983	> 16000
EKVX (lung adenocarcinoma, adherent)	0.962	> 1280	0.772	> 256	0.97	> 10200	0.92	> 20000	0.959	> 1020	0.888	> 10000	0.766	4770	0.968	> 20000	0.933	> 1020	0.751	12700
DEL (lymphoid neoplasm, suspension)	0.99	> 1280	0.599	28.1	0.966	> 10200	0.545	1610	0.994	> 1020	0.991	> 10000	0.726	1160	0.974	> 20000	0.09	4.54	0.982	> 16000
NCI-H1355 (lung adenocarcinoma, adherent)	0.924	> 1280	0.531	20.1	0.975	> 10200	0.906	> 20000	0.978	> 1020	0.954	> 10000	0.66	1060	0.974	> 20000	0.134	< 4	0.893	> 16000
H-EMC-SS (chondrosarcoma, adherent)	0.981	> 1280	0.745	101	0.98	> 10200	0.92	> 20000	0.979	> 1020	0.979	> 10000	0.551	450	0.947	> 20000	0.647	185	0.971	> 16000
SK-MEL-2 (melanoma, adherent)	0.983	> 1280	0.722	70.1	0.977	> 10200	0.902	> 20000	0.981	> 1020	0.982	> 10000	0.475	266	0.987	> 20000	0.905	> 1020	0.97	> 16000
SW872 (soft tissue, adherent)	0.967	> 1280	0.57	24.3	0.978	> 10200	0.921	> 20000	0.986	> 1020	0.981	> 10000	0.349	125	0.976	> 20000	0.102	< 4	0.966	> 16000
SCC-3 (B-cell lymphoma, suspension)	0.997	> 1280	0.965	> 256	0.984	> 10200	0.985	> 20000	0.996	> 1020					0.995	> 20000	0.362	29.6	0.997	> 16000
TE-441-T (rhabdomyosarcoma, adherent)	0.987	> 1280	0.578	26	0.989	> 10200	0.966	> 20000	0.985	> 1020					0.962	> 20000	0.844	689	0.987	> 16000
NCI-H2196 (small cell lung carcinoma, adherent)	0.981	> 1280	0.679	52.1	0.987	> 10200	0.631	2940	0.987	> 1020					0.953	> 20000	0.819	624	0.98	> 16000
